Data on 59 compounds can be found in PubChem BioAssay AID488969 (Vanderbilt High Throughput Screening Facility, 2010).

The full ranking holds about 110,000 compounds; the median of “z-score” is about -0.1, and the highest 2% start at about 2. Some of the results follow. Calls of active or inactive are those of the source.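 Rule for the calls: active = z-score in the third read window above 3 or below -3; inactive = the rest.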

The target of the assay is Metabotropic glutamate receptor 8 (Rattus norvegicus) (UniProt P70579). Nature of the assay: mGluR8 Gi/Go-coupled signaling modulation – cell-based, rat, thallium flux, HTS, primary screen (AID 488969). Particulars: HEK293 rat mGluR8, GIRK (G protein-gated inwardly rectifying potassium channel) thallium flux, FluoZin2; at 10 µM; stronger effect = higher value; submaximal glutamate (EC20) added with thallium.
Sequence of UniProt P70579 (P70579 whole entry, looked up): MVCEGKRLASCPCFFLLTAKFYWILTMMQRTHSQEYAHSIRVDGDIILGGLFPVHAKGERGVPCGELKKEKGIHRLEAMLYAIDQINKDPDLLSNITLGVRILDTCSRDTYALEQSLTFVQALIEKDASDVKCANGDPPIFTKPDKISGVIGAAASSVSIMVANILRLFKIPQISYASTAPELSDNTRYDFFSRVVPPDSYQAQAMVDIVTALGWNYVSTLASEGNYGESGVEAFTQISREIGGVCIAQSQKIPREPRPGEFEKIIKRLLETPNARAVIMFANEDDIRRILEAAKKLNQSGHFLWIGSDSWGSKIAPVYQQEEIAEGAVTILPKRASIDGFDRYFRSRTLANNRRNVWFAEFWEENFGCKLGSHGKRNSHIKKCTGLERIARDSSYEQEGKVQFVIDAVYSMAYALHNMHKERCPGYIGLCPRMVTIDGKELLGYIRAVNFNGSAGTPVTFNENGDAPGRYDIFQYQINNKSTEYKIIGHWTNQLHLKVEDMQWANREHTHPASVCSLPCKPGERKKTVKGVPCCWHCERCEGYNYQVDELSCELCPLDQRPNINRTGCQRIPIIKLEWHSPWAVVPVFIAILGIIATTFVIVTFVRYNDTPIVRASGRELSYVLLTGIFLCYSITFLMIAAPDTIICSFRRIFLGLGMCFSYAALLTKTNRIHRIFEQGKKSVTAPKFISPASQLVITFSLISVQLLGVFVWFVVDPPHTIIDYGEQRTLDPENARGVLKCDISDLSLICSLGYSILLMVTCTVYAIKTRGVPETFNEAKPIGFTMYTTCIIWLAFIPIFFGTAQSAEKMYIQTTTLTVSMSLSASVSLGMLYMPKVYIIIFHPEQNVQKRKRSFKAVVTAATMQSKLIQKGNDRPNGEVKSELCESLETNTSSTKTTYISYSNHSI
Compound `FC(F)(F)c1cc(-c2ccccc2)nc(NC2CCCC2)n1` gave a z-score of 0.192.
`C/C(=C\C(=S)Nc1ccccc1)Nc1ccccc1` yielded a z-score of 0.249.
Regarding `c1ccc(CN2CCN(C3=Nc4cccc5cccc3c45)CC2)cc1`, the z-score was 0.281.
In turn, `CC1CCCCC1NC(=O)C1CCCN1S(=O)(=O)c1cccc2nsnc12` (centres undefined) showed a z-score of 0.081.
In the case of `N#Cc1ccsc1NC(=O)CSc1ncn[nH]1` it was -0.0304; in that of `O=C(OC1CCOC1=O)c1cc(-c2ccccc2)nc2ccccc12` (centres undefined), -0.603; in that of `Cc1cccc(OCc2nnc(SCC(=O)N3c4ccccc4CC3C)n2C)c1C` (centres undefined), -0.51.
`CCOc1ccccc1Oc1ccc(C(F)(F)F)cn1` gave a z-score of 0.241.
To `COc1cccc(C(=O)N2CCN(c3ncccn3)CC2)c1` belongs -0.445; to `O=C(NCc1cccnc1)/C(=C/c1ccc(-c2cccc(Cl)c2)o1)S(=O)(=O)c1ccccc1`, -0.494.
In the case of `Cc1cc2cc(CNC(=O)CC(C)C)ccc2n1C` it was -0.375; in that of `COc1ccc(/C=C2\C(=O)N(Cc3ccc(F)cc3)CC(=O)N2Cc2ccccc2)cc1`, -0.183.
With `Cc1ccc(NC(=S)c2ccccc2)cc1`, the z-score amounted to 0.00629.
In the case of `CCOC(=O)CC(C#N)c1c[nH]c2ccccc12` (centres undefined), the z-score was -0.0366.
To `CCN(CC(=O)Nc1ccccc1C(=O)OC)S(=O)(=O)c1ccccc1` belongs -0.277.
`C=CCN(CC=C)Cc1c(C)[nH]c2ccc(C(=O)OCC)cc2c1=O` returned a z-score of -0.266.
In turn, `COCCNC(=O)c1ccccc1NC(=O)c1ccccc1N(C)S(=O)(=O)c1ccccc1` returned a z-score of -0.125.
As for `COC(=O)c1ccccc1NC(=S)NC(=O)c1ccc2ccccc2c1`, the z-score stood at 0.231.
For `COc1ccc(NC(=O)C23CC4CC(C2)CC(c2ccc(C)cc2)(C4)C3)cc1`, the z-score is -0.339.
Compound `Cc1cc(C)nc(SCc2ccc(C(=O)N/N=C/c3cccc(O)c3O)cc2)n1` returned a z-score of -0.453.
Regarding `CCOC(=O)C(=NCCCN(C)C)NNc1ccc(Br)cc1`, the z-score was -0.0604.
`CC1CCN(c2c(NCc3ccc(C(=O)N4c5ccccc5CC4C)cc3)c(=O)c2=O)CC1` (centres undefined) showed a z-score of -0.373.
As for `COCc1nnc(NC(=O)c2ccccc2[N+](=O)[O-])s1`, the z-score is -0.228.
`Cc1cc(C)nc(SCC(=O)Nc2sc3c(c2C#N)CCC(C)C3)n1` (centres undefined) showed a z-score of -0.257.
On to `CCn1c(SCC(=O)c2[nH]c(C)c(C(C)=O)c2C)nnc1-c1ccccc1`, for which the z-score was -0.0524.
Take `C#CC(CC)(CC)NC(=S)Nc1cccc(C(C)=O)c1`: the z-score was -0.3.
For `O=C(COc1ccc(Cl)cc1)N1CCN(C(=O)c2cccc(F)c2)CC1`, the z-score was 0.465.
For the compound `Cc1ccc(NC(=O)c2cc(C)n(-c3cccc(C)c3)c2C)cc1`, the z-score is -0.253.
As to `COc1cccc(N(CC(=O)Nc2ccc3c(c2)OCO3)S(=O)(=O)c2ccccc2)c1`, the z-score is 0.127.
With `CCOC(=O)C1=C(C)NC2=C(C(=O)C(C(=O)OCC)C(c3ccccc3OC)C2)C1c1ccccn1` (centres undefined), the z-score was active: -3.33.
With `COCCN=C1Sc2nc3ccc(C)cc3cc2CN1Cc1ccco1`, the z-score is -0.504.
The compound `COC(=O)c1ccccc1NC(=O)N1c2ccccc2CC1C` (centres undefined) displayed a z-score of -0.864.
As for `O=[N+]([O-])c1ccc(N2CCN(S(=O)(=O)c3ccccc3)CC2)cc1N1CCc2ccccc2C1`, the z-score is -0.106.
Consider `CCC(=O)c1cc2c(C)cc(=O)oc2c(C)c1OC`, for which the z-score was -0.439.
To `Cn1c(-c2ccccc2)cnc1SCC(N)=O` belongs 0.64; to `COc1ccc(CN(C(=O)c2nsc(Cl)c2Cl)C(C(=O)NC2CCCC2)c2ccc(OC)cc2)cc1` (centres undefined), -0.361.
`Cn1nnc(NC(=O)COc2ccc(C3CCCCC3)cc2)n1`: the z-score turned out to be 0.85.
To `COc1ccc(C2(CNC(=O)c3cccc([N+](=O)[O-])c3)CCCCC2)cc1OC` belongs -0.559; to `Cc1cc(C)nc(SCC(=O)N/N=C/c2cccn2-c2cccc(C(F)(F)F)c2)n1`, 0.12.
For the compound `CN(C)C(=O)CN(c1ccc(F)c(Cl)c1)S(C)(=O)=O`, the z-score stood at 0.00105.
In the case of `Cc1ccccc1OCc1nc2c3cnn(C)c3ncn2n1`, the z-score was found to be 0.676.
In the case of `Oc1ccc(N=Cc2sc3ccccc3c2Cl)cc1` it was -0.0453; in that of `CCOC(=O)C(NC(=O)c1ccc(OC)cc1)(OCC1(CC)COC1)C(F)(F)F` (centres undefined), 0.00709; in that of `NNC(=O)[C@@H]1C[C@@H]1c1ccccc1`, 0.0986.
As for `c1ccc(-n2ncc3c(N4CCCC4)ncnc32)cc1`, the z-score is -0.503.
`CC(=O)NC(Cc1ccc(F)cc1)C(=O)NC1CCN(c2nnnn2-c2ccccc2)CC1` (centres undefined) registered a z-score of -1.58.
`CCCn1cnc2c(=O)oc3ccccc3c21` registered a z-score of -0.399.
As to `CCCCN1C(=O)C(CC(=O)NCC)SC1=Nc1ccccc1` (centres undefined), the z-score was -0.0975.
Turning to `CC(=O)c1ccc(NC(=O)c2ccc(COc3ccccc3[N+](=O)[O-])o2)cc1`, the z-score is -0.417.
Compound `CN=Cc1nc(-c2ccccc2)oc1O` gave a z-score of 1.62.
Compound `COc1ccccc1/C=C/C(=O)c1cc(Br)ccc1OC(=O)c1ccco1` returned a z-score of -0.11.
In the case of `CCOC(=O)C(C(=O)OCC)C(C)C#CCN1CCCCC1` (centres undefined) it was -0.145.
In the case of `CC1(C)CC(O)(CNCc2ccc3c(c2)OCO3)CCO1` (centres undefined) it was 0.108.
To `CCC(=O)N/C(=N/c1nc(C)cc(C)n1)Nc1cccc(OC)c1` belongs 0.0375.
Compound `COC(=O)c1ccc(N=C2S/C(=C\c3cc(C)n(-c4cccnc4)c3C)C(=O)N2C)cc1` yielded a z-score of 0.0719.
For the compound `CCOC(=O)C(C)/C(C)=N/NC(=O)c1cc2ccccc2cc1O` (centres undefined), the z-score was -0.195.
Regarding `COc1ccccc1C(=O)N/N=C/c1ccc(Cl)s1`, the z-score is -0.273.
Compound `CN1CCN(S(=O)(=O)c2ccc(NC(=O)c3ccc(Br)s3)cc2)CC1` gave a z-score of 0.431.
In the case of `O=C(Nc1ccc(Cl)cc1)OCCn1nnnc1C(c1ccccc1)N1CCOCC1` (centres undefined) it was -0.796.
